Source: the antibiotic and cytotoxicity screens of Wong et al. (2023)
Some of the results follow.

These compounds were tested on HepG2 (assay: cytotoxicity call (relative viability < 0.9)). Details: 10 µM.

Question: Which cytotoxicity call does the source give for `C[C@H](CO)N1C[C@H](C)[C@H](CN(C)Cc2ccc(C(=O)Nc3ccccc3N)cc2)Oc2ccc(NC(=O)Nc3cccc4ccccc34)cc2CC1=O` here?
Answer: active

Question: How did the cytotoxicity call turn out when `Cc1ccc(S(=O)(=O)N2C[C@H](O)COC[C@H]3O[C@H](CC(=O)NCc4ccc(Cl)c(Cl)c4)CC[C@@H]32)cc1` was run?
Answer: inactive

Question: How did the cytotoxicity call turn out when `CCOC(=O)c1sc(=NN)[nH]c1C` was run?
Answer: inactive

Question: `CC(C)NC(=O)Nc1cccc2c1O[C@H](CN(C)S(=O)(=O)c1cccs1)[C@H](C)CN([C@@H](C)CO)C2=O` was tested. Which cytotoxicity call did it give?
Answer: inactive

Question: `C[C@H]1CN([C@@H](C)CO)C(=O)c2cccc(NS(=O)(=O)c3cn(C)cn3)c2O[C@@H]1CN(C)C(=O)Nc1ccccc1` was tested. Which cytotoxicity call did it give?
Answer: inactive

Question: Which cytotoxicity call does the source give for `C[C@@H]1CN([C@@H](C)CO)C(=O)c2cc(NC(=O)Cc3cn(C)c4ccccc34)ccc2O[C@@H]1CN(C)Cc1ccc(Oc2ccccc2)cc1` here?
Answer: inactive

These compounds were tested on S. aureus RN4220 (assay: growth inhibition call (relative growth <= 0.2)). Details: 50 µM.

Question: `NCC[C@@H]1CC[C@@H](NC(=O)c2ccccc2F)[C@H](CO)O1` was tested. Which growth inhibition call did it give?
Answer: inactive

Question: `COc1ccccc1[C@@H](NC(=O)C1CCN(CCOc2ccc(Cl)cc2Cl)CC1)c1ccccn1` was tested. Which growth inhibition call did it give?
Answer: inactive

Question: With `Cc1ccc(S(=O)(=O)N(C)C[C@@H]2Oc3c(NC(=O)Nc4cccc5ccccc45)cccc3C(=O)N([C@H](C)CO)C[C@H]2C)cc1` as the compound, how does the growth inhibition call read?
Answer: inactive

Question: `C[C@H](CO)N1C[C@H](C)[C@@H](CN(C)C(=O)Nc2ccc3c(c2)OCCO3)OCc2cn(nn2)CCCC1=O` was tested. Which growth inhibition call did it give?
Answer: inactive

Question: `CCCCCCCCCC(=O)N[C@@H](Cc1c[nH]c2ccccc12)C(=O)N[C@H](CC(N)=O)C(=O)N[C@@H](CC(=O)O)C(=O)N[C@@H]1C(=O)NCC(=O)N[C@@H](CCCN)C(=O)N[C@@H](CC(=O)O)C(=O)N[C@H](C)C(=O)N[C@@H](CC(=O)O)C(=O)NCC(=O)N[C@H](CO)C(=O)N[C@@H]([C@H](C)CC(=O)O)C(=O)N[C@@H](CC(=O)c2ccccc2N)C(=O)O[C@@H]1C` was tested. Which growth inhibition call did it give?
Answer: active

Question: With `C[C@@H]1CN([C@@H](C)CO)S(=O)(=O)c2ccc(-c3cccc(C#N)c3)cc2O[C@@H]1CN(C)C(=O)c1ccncc1` as the compound, how does the growth inhibition call read?
Answer: inactive

Question: How did the growth inhibition call turn out when `Cc1noc(C)c1S(=O)(=O)N(C)C[C@@H]1Oc2c(NS(=O)(=O)c3cn(C)cn3)cccc2C(=O)N([C@H](C)CO)C[C@H]1C` was run?
Answer: inactive

Question: For `C[C@@H]1CN([C@@H](C)CO)C(=O)c2cc(NC(=O)CCCCCC(=O)Nc3ccccc3N)ccc2O[C@H]1CN(C)CC1CCCCC1`, which growth inhibition call is on record?
Answer: inactive

Question: How did the growth inhibition call turn out when `O=C(CN1C(=O)c2cccc3cccc(c23)C1=O)N1CCN(CCN2C(=O)[C@@H]3[C@@H](C2=O)[C@@H]2C=C[C@@H]3C2)CC1` was run?
Answer: inactive

Question: With `C[C@H]1CN([C@@H](C)CO)C(=O)c2cc(NC(=O)Nc3ccccc3)ccc2O[C@H]1CN(C)Cc1ccc(Cl)c(Cl)c1` as the compound, how does the growth inhibition call read?
Answer: inactive

Question: `C[C@@H]1CN([C@H](C)CO)C(=O)c2cc(NC(=O)CCC(F)(F)F)ccc2O[C@@H](C)CCCCO[C@H]1CN(C)Cc1ccc(C(F)(F)F)cc1` was tested. Which growth inhibition call did it give?
Answer: inactive

Question: Which growth inhibition call does the source give for `C[C@@H](Cc1c[nH]c2ccccc12)NC(=O)CN` here?
Answer: inactive

Question: How did the growth inhibition call turn out when `Cc1ccc(S(=O)(=O)Nc2cccc3c2O[C@@H](CN(C)Cc2ccc(C(F)(F)F)cc2)[C@H](C)CN([C@@H](C)CO)C3=O)cc1` was run?
Answer: inactive

Question: For `C[C@@H]1CN([C@H](C)CO)C(=O)c2cccc(NC(=O)Nc3ccc(C(F)(F)F)cc3)c2O[C@H]1CN(C)C(=O)Nc1ccc(F)cc1`, which growth inhibition call is on record?
Answer: inactive

Question: With `COc1c(O)cc(O)cc1O` as the compound, how does the growth inhibition call read?
Answer: inactive

Question: `COc1ccc(S(=O)(=O)Nc2ccc3c(c2)C(=O)N([C@@H](C)CO)C[C@H](C)[C@@H](CN(C)Cc2ccc(Oc4ccccc4)cc2)O3)cc1` was tested. Which growth inhibition call did it give?
Answer: inactive

Question: Which growth inhibition call does the source give for `COc1ccc([C@H]([C@@H](O)Cc2ccccc2)N(CC#C[C@@H](O[Si](c2ccccc2)(c2ccccc2)C(C)(C)C)c2ccccc2)[C@@H](Cc2ccccc2)C(OC)OC)cc1` here?
Answer: inactive

Question: Which growth inhibition call does the source give for `C[C@@H]1CN([C@@H](C)CO)C(=O)c2cc(NC(=O)C3CCCCC3)ccc2O[C@@H](C)CCCCO[C@H]1CN(C)Cc1ccc2c(c1)OCO2` here?
Answer: inactive

Question: For `CCCC#Cc1ccc2c(c1)O[C@@H](CN(C)S(=O)(=O)c1cccc(F)c1)[C@@H](C)CN([C@@H](C)CO)S2(=O)=O`, which growth inhibition call is on record?
Answer: inactive

Question: For `Cc1nnc(NCc2ccccc2)n(N)c1=O`, which growth inhibition call is on record?
Answer: inactive

Question: How did the growth inhibition call turn out when `COc1ccc(CN(C)C[C@H]2Oc3ccc(NC(=O)Nc4ccc(C(F)(F)F)cc4)cc3C(=O)N([C@@H](C)CO)C[C@@H]2C)cc1` was run?
Answer: inactive

Question: How did the growth inhibition call turn out when `CC(C)NC(=O)Nc1ccc2c(c1)C(=O)N([C@H](C)CO)C[C@H](C)[C@@H](CN(C)C(=O)Nc1cccc3ccccc13)OCCCC[C@@H](C)O2` was run?
Answer: inactive
